Laboratory results taken from the BET-seq Pho4 binding data (Le et al. 2018).
Some of the results follow. Values were computed here from the reads of four pooled replicates and scatter widely.

Target: T1, Pho4 (S. cerevisiae) (UniProt P07270)
T1 sequence: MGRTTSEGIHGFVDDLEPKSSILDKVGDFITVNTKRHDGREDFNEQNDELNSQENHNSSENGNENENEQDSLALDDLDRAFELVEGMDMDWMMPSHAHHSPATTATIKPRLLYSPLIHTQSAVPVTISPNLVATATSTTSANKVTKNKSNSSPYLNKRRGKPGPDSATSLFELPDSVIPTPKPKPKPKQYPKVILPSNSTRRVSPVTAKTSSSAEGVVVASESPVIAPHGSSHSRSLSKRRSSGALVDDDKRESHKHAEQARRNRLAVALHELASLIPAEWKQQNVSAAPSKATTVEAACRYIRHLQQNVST
Experiment: relative binding free energy (BET-seq); higher = weaker binding
Details: reference: library average

Relative binding free energy, -0.04 kcal/mol:
GAGTGCACGTGCGTGC
AGGACCACGTGTGGTT
AGGTGCACGTGTTTTG
ATTGGCACGTGTTCAT

Relative binding free energy, 0.2 kcal/mol:
GGGATCACGTGGTGAA
TCATGCACGTGAAGGT
TGGAGCACGTGAAGAG

Relative binding free energy, 0.38 kcal/mol:
GCTTACACGTGTGATT
AGGCTCACGTGTTTAG

Relative binding free energy, -0.22 kcal/mol:
TAAGGCACGTGGGGTT
TGTGGCACGTGCCGGA

Relative binding free energy, -0.19 kcal/mol:
ATTAGCACGTGTGCTG

Relative binding free energy, 0.23 kcal/mol:
TTCGTCACGTGAAGTA
GTAGGCACGTGAATGT
ATTCGCACGTGAAGGT
CGTGACACGTGAAGTT
AGGGTCACGTGACGTA

Relative binding free energy, 0.35 kcal/mol:
GTATACACGTGGAAAT
ACTTTCACGTGTAGAT

Relative binding free energy, -0.27 kcal/mol:
GGGAGCACGTGGGCGC

Relative binding free energy, -0.17 kcal/mol:
AAGTGCACGTGGGCCT
TGTGCCACGTGGGAAG

Relative binding free energy, 0.11 kcal/mol:
TTTGTCACGTGGTTAT
TGAGTCACGTGGGAGC
TTTACCACGTGTGCGT
GTTACCACGTGTGGAG
AGGGACACGTGTGATT
CACGTCACGTGTTTGT
AGAGCCACGTGAGGGT

Relative binding free energy, 0.01 kcal/mol:
TAAGTCACGTGGATTA
GATGGCACGTGATGAT
GGGTCCACGTGTTATG
CCGGTCACGTGGAGTG

Relative binding free energy, -0.11 kcal/mol:
TTTGTCACGTGCTCTG
ATTGACACGTGGGCTT
TTCGGCACGTGGGTTA

Relative binding free energy, 0.28 kcal/mol:
TTCCTCACGTGTTTTG
GTCATCACGTGTGGCG
CGATTCACGTGGAGTG

Relative binding free energy, 0.09 kcal/mol:
AATTACACGTGGTAGA
TCGGTCACGTGTGGTA
ACGGTCACGTGTAGGC

Relative binding free energy, -0.02 kcal/mol:
TAATGCACGTGGCAGG
TTTACCACGTGTGTAT
ATATGCACGTGTGAAG

Relative binding free energy, -0.14 kcal/mol:
GTGGACACGTGGGATG
TTGGACACGTGGAGAG
TAAGGCACGTGTTGAT
AAGCGCACGTGTGGGG
ATTTGCACGTGGGTTA

Relative binding free energy, -0.13 kcal/mol:
GAGTGCACGTGGGTAC

Relative binding free energy, 0.41 kcal/mol:
TGGCTCACGTGAGTGG

Relative binding free energy, -0.01 kcal/mol:
CTTGGCACGTGTGGGG
GGTAACACGTGGTTTA
CTTGTCACGTGGAGGG
TCGGACACGTGTCGGG
GGCGGCACGTGCAGTT
TCTGTCACGTGGTATA
CCAGTCACGTGCGGGG

Relative binding free energy, -0.06 kcal/mol:
TGCGGCACGTGGCGAG
CGATGCACGTGGGAAG
AGAGACACGTGGTATT
GGATGCACGTGGGGAT
TTTTCCACGTGGAGGT

Relative binding free energy, 0.22 kcal/mol:
GTGTTCACGTGTAGAT
GTTTTCACGTGCAGTA

Relative binding free energy, -0.26 kcal/mol:
TGATGCACGTGGGCAT

Relative binding free energy, -0.36 kcal/mol:
TTGCGCACGTGGTCTG

Relative binding free energy, -0.05 kcal/mol:
AATGACACGTGTGTTT

Relative binding free energy, 0.04 kcal/mol:
GGTGGCACGTGATTCT
TTGTGCACGTGGAGAG
CATGTCACGTGTTGGG
TCGGTCACGTGGGTGA

Relative binding free energy, -0.08 kcal/mol:
GGAGGCACGTGGTTCG
GAGGGCACGTGTTTGT
AAATGCACGTGGATGG
GGTGGCACGTGCTGTC
TTTCCCACGTGTTTTT

Relative binding free energy, 0.42 kcal/mol:
TGATTCACGTGAAGAG
GGATGCACGTGAAGAG

Relative binding free energy, 0.19 kcal/mol:
GGTGCCACGTGATTGG
GGGTGCACGTGGAACT
GTCGGCACGTGAGAGG
TGAGGCACGTGAAAAG
AGTTGCACGTGAGTGC
AAAGTCACGTGATGTG
ATACACACGTGTGGTT
GGTGTCACGTGTCGGG

Relative binding free energy, -0.15 kcal/mol:
AGGGGCACGTGGTCAG
CGGTGCACGTGTGTCG
ATAAGCACGTGTGTCG

Relative binding free energy, 0.07 kcal/mol:
CGCATCACGTGGGTGT
GGTATCACGTGGGGTA
AGTGGCACGTGAGAGC
GATGTCACGTGGGAGG
TGGCACACGTGTTTGT

Relative binding free energy, -0.1 kcal/mol:
TCGTACACGTGGGAGT
AGAGACACGTGGGCGG
TTTTGCACGTGGCTAA
GTTAACACGTGCTTGG

Relative binding free energy, 0.32 kcal/mol:
GTTGTCACGTGAGAGA
GGCATCACGTGTGGGT
TGACTCACGTGTGTAT

Relative binding free energy, 0.18 kcal/mol:
TAGATCACGTGTAGTG
AGGTACACGTGTGACG
TTGATCACGTGTGTAT
TTCTACACGTGTGAGG
GTTGTCACGTGTTTTC
TGGCTCACGTGCTGTT

Relative binding free energy, 0.51 kcal/mol:
GTTTTCACGTGCCAGT

Relative binding free energy, 0.05 kcal/mol:
GGCGGCACGTGTTCTT
TGAGTCACGTGGTATG
TTAATCACGTGTTTTG
GTTTCCACGTGTGCGG
TTTTGCACGTGCCATG

Relative binding free energy, 0.16 kcal/mol:
AGGTTCACGTGGCGCA
GTTAGCACGTGACGTA
GGTTGCACGTGTCATA
TGCTACACGTGTGGGC
GGTCTCACGTGGTTTC

Relative binding free energy, 0.14 kcal/mol:
TGACACACGTGTGGAT
TTAGGCACGTGAACAG
TGTTACACGTGATTAA

Relative binding free energy, -0.3 kcal/mol:
ATGGGCACGTGTTTGC

Relative binding free energy, 0.33 kcal/mol:
GTCTTCACGTGTTGAA
GGGATCACGTGTTCGG

Relative binding free energy, 0.06 kcal/mol:
TGCGGCACGTGATGTA
ATTTGCACGTGTTGCT
TTAGTCACGTGTATTG
AGTGGCACGTGATACG
TTGCGCACGTGATTAT

Relative binding free energy, -0.03 kcal/mol:
ATAAACACGTGTTATT
CGCGGCACGTGGGAAT
CTTTGCACGTGGGAGT

Relative binding free energy, 0.56 kcal/mol:
GAGTTCACGTGAAATA

Relative binding free energy, -0.07 kcal/mol:
ATGGCCACGTGTGTCG
CGGATCACGTGGGGTA
GGGGACACGTGTTGCT
GGGGCCACGTGGTGCC
GACGGCACGTGCGGGG
TGTATCACGTGCTGGA
TTTAGCACGTGCGGGC
CTTGTCACGTGGCTGG

Relative binding free energy, 0.3 kcal/mol:
AGTCTCACGTGGAAGG
TTATTCACGTGTACTG

Relative binding free energy, 0.26 kcal/mol:
TTCTGCACGTGAAATG
TCGCTCACGTGATGGT
AGGTTCACGTGGATCG

Relative binding free energy, -0.12 kcal/mol:
CGTGGCACGTGTGGAG
GGGTGCACGTGGCCAG
TTAACCACGTGGTTTT
ATGGGCACGTGTTACT

Relative binding free energy, -0.09 kcal/mol:
TGAGCCACGTGTTGTT
GGTGCCACGTGCATGT
AAGGCCACGTGTGTGT

Relative binding free energy, 0.15 kcal/mol:
CTGGGCACGTGAGATG
GTTTACACGTGGTGGC
TAGAACACGTGGTCGG
GATGGCACGTGAGTTT
AGGCTCACGTGGCAGG
GGGTTCACGTGCGCAT
AGGGCCACGTGAGGAT

Relative binding free energy, 0.03 kcal/mol:
GTGCTCACGTGGGTGT
TGGCACACGTGGTAAG
TACTTCACGTGGGGTA
ATCTTCACGTGGGTTG

Relative binding free energy, 0.1 kcal/mol:
GGTAACACGTGGTTCA
TTTGTCACGTGTCGCG
GGTACCACGTGTGTAT

Relative binding free energy, 0 kcal/mol:
ATTGTCACGTGGGCTC
AGAATCACGTGCGGTT
AGAAACACGTGTTAGG
AGTAGCACGTGAGCGG

Relative binding free energy, 0.13 kcal/mol:
ACGGTCACGTGTTGTG
ATGGACACGTGGAATG
AGTAACACGTGTGGCT
TATTACACGTGTTGCG
GTGATCACGTGTCGAG
AGTTACACGTGTTGGC
ATATACACGTGTGTGG
GGTATCACGTGGGTAT
GGAGGCACGTGAGTTA

Relative binding free energy, -0.23 kcal/mol:
CTGTGCACGTGGCATG
CTTAGCACGTGGCTGG
TGCTGCACGTGGGCGG

Relative binding free energy, 0.17 kcal/mol:
AACTTCACGTGTTTGG
TTCTGCACGTGAGTGA
TGCTGCACGTGATGGG
AAGTGCACGTGATGGA
AGGGCCACGTGAATGT

Relative binding free energy, 0.46 kcal/mol:
TGTCTCACGTGAGTCG

Relative binding free energy, 0.24 kcal/mol:
TTTTGCACGTGAGTAT
GGTGGCACGTGAGAGG
TGGGCCACGTGTGAAA

Relative binding free energy, -0.25 kcal/mol:
TGGGGCACGTGCTTAG
GTTGCCACGTGGGGGT

Relative binding free energy, 0.02 kcal/mol:
TGAGGCACGTGGATTT
AATCGCACGTGTGGTG
GGAGTCACGTGGTGTC
ACTAGCACGTGTGTGT
CCGGTCACGTGGGGTT

Relative binding free energy, -0.16 kcal/mol:
GGGGCCACGTGGTCGG
GTTGGCACGTGTGTAC
CTTGTCACGTGGGATT
AGCTGCACGTGGGTCG

Relative binding free energy, 0.29 kcal/mol:
TGGTACACGTGAAAAT
TGTTTCACGTGATGTG
TAGTTCACGTGGAGCT
TATCTCACGTGGTGAG

Relative binding free energy, 0.12 kcal/mol:
TTGAGCACGTGTAACT
ATGCTCACGTGGTGAG

Relative binding free energy, 0.25 kcal/mol:
GTTGTCACGTGAGAAA
GGTTGCACGTGAGTGG
TAAATCACGTGATTAT

Relative binding free energy, 0.08 kcal/mol:
ATTGTCACGTGAAGAT
TGGTCCACGTGTTAGG
TGTGTCACGTGACGCG
TGTGACACGTGTCTGC
GTGATCACGTGGGCGC
CATGTCACGTGGGTGC
GGTATCACGTGTTCAG
TGCGTCACGTGGATTA
GTCGGCACGTGTAGTG

Relative binding free energy, 0.21 kcal/mol:
TAGATCACGTGATATT
CGTCTCACGTGTGTGA
GGATACACGTGTTAGT
ACTGTCACGTGATATG
CGGGTCACGTGTGAAG

Relative binding free energy, 0.36 kcal/mol:
TATGTCACGTGAGATG
TGGCTCACGTGATATG
